Laboratory results taken from the supplement of paper PMC3334620.
In all, about 33,000 sequences were measured (“E-score (-0.5 to 0.5)”: median about -0.016, highest 2% from about 0.31 on). The list shows a part of the results.

molecular target: Cst6 (UniProt P40535); assay: PBM E-score (8-mer binding enrichment) (E-score (-0.5 to 0.5)); higher = stronger / more preferred TF binding; most listed sequences are background and not binding sites; settings: protein concentration: 200 nM; construct: GST-DNA-binding domain
Summary of the method: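 GST-tagged yeast TFs (full-length or DNA-binding domain) were made by PURExpress in vitro transcription/translation and applied at about 100-200 nM to universal all-10-mer Agilent arrays. The arrays were made double-stranded by primer extension, on fresh or once-stripped slides. Bound protein was detected with fluorescent anti-GST, and scans were normalised with masliner. Each ungapped eight-base word, pooled with its reverse complement, received an E-score (modified Wilcoxon-Mann-Whitney statistic) from the Universal PBM Analysis Suite.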

Sequence	PBM E-score
ATACTGTG	-0.0714
ATCATTAC	0.375
CCGCATTC	-0.0624
ACCACTCA	-0.0856
CCTCGCCC	-0.108
CGCGGCCA	0.0955
GTAGCTTA	0.151
CATCCTCC	-0.158
AGAACTTG	0.0129
AATGGCTG	-0.0687
AAATACAC	0.141
CAACTGCA	-0.013
CACGTCTG	0.0582
CAGCTAGG	-0.311
ACGTCACA	0.484
CGATATAG	0.0381
CGGTGAAC	-0.0267
GGGCGACC	-0.368
GCGGAACA	-0.135
GTCGTCCA	-0.114
ACATATGA	0.276
AGGGTTAG	-0.193
CGGACTCC	-0.188
AAGACCGG	-0.187
CCTCAGGC	-0.217

Sequence	PBM E-score
CGATAAAA	0.125
ACCCTTAC	0.0592
AACCTTGC	-0.0316
CTTTCAAC	0.0575
GTGAGCAC	-0.00779
CAGGTGCA	-0.0761
CAACATAA	0.183
CAAATCGG	0.0431
AATGGGAC	-0.175
CACGATCG	0.0279
ATTATGAC	0.394
CGGGACCC	-0.362
CTTGAGGA	-0.15
CTTTGTTA	0.156
CACGCTCG	-0.152
AGCGCCCC	-0.212
ACCCGTCA	0.137
AGTGCAAA	0.143
CGTTATTA	0.086
ACAAGGAC	-0.203
CTCGTCTC	-0.152
AGACCTCC	-0.379
ACGTACGC	0.229
CAAGCATC	-0.0664
ATCTGGTA	-0.00615

Sequence	PBM E-score
GTAAGTTA	0.194
TATATATA	0.315
ATGCATGG	0.0714
AGGGAATA	0.118
CATGCTCC	-0.169
AGTGCGGG	-0.123
AGAACAGA	-0.0648
CTTTTGAC	0.0353
TGGAAAAA	0.183
CGACCAAG	-0.205
AGTACTAG	-0.0462
TATCCGCA	0.209
GAGAATCA	0.0315
ATTCCAGA	0.206
CATGGGGA	-0.00402
GATGTCAA	0.245
CCTACGGA	-0.213
GCCGTTTA	0.233
CGTTTGTA	0.136
GAAGTGGC	-0.0167
ATGTTCAC	-0.0304
AGGCGCTG	0.031
CCGACATC	0.0433
CTCTTCAG	-0.0864
CTGGAAAC	0.0464

Sequence	PBM E-score
GCTACACA	-0.0596
AACGACTC	-0.201
CAGCGCGC	-0.0843
ACCGGCAG	-0.282
CACTTCTG	-0.0466
CATTTTTA	0.0761
AGCTGCTA	-0.112
CACTAATC	0.0524
GCTACGAC	0.0382
CATGAGTC	0.147
TAGAGCCA	-0.149
AATGAATC	-0.0335
CATCCATC	-0.182
GCGTCGAC	0.0915
GTTCTTGA	0.103
CCCTTACA	-0.051
CCGAGTGC	-0.119
AATCCTGA	0.13
CATGTTCA	-0.144
ATTAGTAA	0.222
ATCGTTCG	0.0403
GAGCCCTA	-0.21
CACGAATC	0.175
CGTATACA	0.24
CTATTCCC	-0.143

Sequence	PBM E-score
ATTGGGAA	-0.0713
TGCTTTAA	0.0492
GACGTTCA	0.2
GCGGCCCA	-0.136
CTACATTC	-0.157
GGAAAACC	-0.0924
GCCCGTCA	-0.0953
ATTGTGTA	0.194
AGAGTCAG	-0.119
AGCAGGAG	-0.167
GTGTCGAA	-0.0474
AACAAAGG	-0.0382
CCGACTTA	-0.00423
CCACCACA	-0.154
CCTTGACA	0.087
CTTTTTGA	0.123
ACATATCT	0.164
ACTTAGCC	0.028
CGCTGTTA	-0.0539
AATGTGTG	0.189
AGTGGGTG	0.0423
AACCCTGG	-0.291
AGGTACGA	-0.196
GAAGCCAC	-0.0583
AAACAGCT	-0.112

Sequence	PBM E-score
GAAGCAGA	0.0273
GATGAATA	0.196
CACACTTC	0.0627
CATTGCCG	0.0803
AGTAGACA	0.0104
CCCGTCAA	-0.228
AACCTAAA	0.196
AGATGATA	0.211
TGGAGCAA	0.0233
AGAATAGC	0.0158
ATCCTCGG	-0.048
AGTCGTAC	-0.239
CCCAATAA	0.0337
ACGAGGGG	-0.39
GCGTTGAC	0.195
ATCAGACG	0.0186
ACTGCGGG	-0.0734
AAATGACT	0.0956
GCAGGTTA	-0.238
TACTGCTA	-0.0621
ATCTGCTC	-0.107
AAACACAT	0.106
AGGGCCCT	-0.244
CAACGGCC	-0.183
AAGTGTAA	-0.102

Sequence	PBM E-score
ACTCACTG	0.0658
AACAACAA	0.218
AAACGCGC	-0.023
CGTGTGCA	0.0106
CACCCGTC	0.13
CAAGTGGG	-0.119
ACAGGTAG	-0.114
AGCAAGGA	-0.243
AAAGTCAT	0.131
AGCCATTG	0.0412
AGATCCAC	0.0314
AATGTGAC	0.197
GAGCGGAA	0.0896
CACGAGGG	-0.349
AGGACTAA	-0.0307
CGCGATAG	0.109
AAACGCAC	0.0711
GAGAACTC	-0.209
AACAGCCC	0.0474
ATCGTACG	0.0804
AGTGCCTC	-0.013
AATAGCCA	0.134
